Usually % Inhibition stands for the relative decrease from the control value, in per cent.

Among all 150,000 compounds or so, about 540 (0.36%) showed an effect of 50% or more. This is one part of the list.

The results in this text go back to ChEMBL document CHEMBL4888484, “Replenishing the malaria drug discovery pipeline: Screening and hit evaluation of the MMV Hit Generation Library 1 (HGL1) against asexual blood stage Plasmodium falciparum ,using a nano luciferase reporter read-out” (2022).

For this test, the system named is Plasmodium falciparum. Put plainly: Primary screen in NF54 nanoGlo assay, in single point, at 2uM, 72h; a lower Z score goes with more inhibition. It is filed as functional, Erythrocyte. To be noted: timepoint 72 hour.
Turning to `COc1ccc(OC)c2nc(N3CCCC3)c(CN(Cc3ccc4c(c3)OCO4)C(=O)c3[nH]nc4c3CCCC4)cc12`, the “% Inhibition” value is 6% and the Z score is given as -1.15.
Turning to `CC(C)(C)C(=O)N1CCC(OC2CCN(Cc3ccccc3)CC2)CC1`, the “% Inhibition” value is reported as -1% and the Z score was 0.1.
As for `CN(CC(=O)Nc1cccc(F)c1)C(=O)CC1CCCC1`, the “% Inhibition” value is 3% and the Z score is listed as -0.4.
Turning to `COC(=O)Nc1cccc(OS(=O)(=O)C[C@]2(OC)CCOC2)c1`, the “% Inhibition” value is -3% and the Z score was 0.37.
As to `COc1cccc([C@H](NC2CCNCC2)c2cc(F)ccc2OC)c1`, the “% Inhibition” value is on record as -1% and the Z score is given as 0.15.
For `COc1c(C#N)ccc(=O)n1Cc1nc(C(F)(F)F)cs1`, the “% Inhibition” value was -8% and the Z score worked out at 1.43.
Take `CCN(C)C1(CNC(=O)[C@H]2CC[C@@H](O)CC2)CCCCC1`: the “% Inhibition” value turned out to be 2% and the Z score was -0.28.
In the case of `COC[C@@H]1C[C@@H](OC)CN1C(=O)c1cc(C)on1`, the “% Inhibition” value was -1% and the Z score is on record as 0.16.
In the case of `N#Cc1cc(N2CCC[C@H]2CCc2ccccn2)ccn1`, the “% Inhibition” value is reported as -18% and the Z score worked out at 2.22.
Turning to `CN1CCN([C@@H]2COC3(C2)CN(C(=O)c2ccc4ccccc4n2)C3)CC1`, the “% Inhibition” value was -15% and the Z score amounted to 2.32.
Turning to `O=C(NC1(CO)CC1)C1CC12CCOc1ccccc12` (stereo unspecified), the “% Inhibition” value is given as -9% and the Z score is recorded as 1.69.
The corresponding values for `O=C(NCc1cccnc1)[C@]1(F)CCCN(S(=O)(=O)c2ccc3c(c2)CCC3)C1` are -21% and 1.84.
Turning to `CO[C@H]1CCN(c2ccc(C(=O)NCCc3cccs3)cc2)C1`, the “% Inhibition” value is on record as -17% and the Z score stood at 2.13.
With `CCc1noc(CN(C)S(=O)(=O)c2cncc(Cl)c2)n1`, the “% Inhibition” value is on record as -8% and the Z score is reported as 1.14.
Regarding `CN(CC#N)C(=O)C1(C2CC2)CCOCC1`, the “% Inhibition” value is -12% and the Z score is recorded as 1.47.
For the molecule `O=C(O)C[C@H]1CN(C(=O)COCC2CC2)CCO1`, the “% Inhibition” value came to 0% and the Z score turned out to be 0.07.
As for `CC(=O)N1CC(OCC(=O)N2CCN(c3ccccc3)[C@@H](C)C2)C1`, the “% Inhibition” value was -15% and the Z score turned out to be 3.07.
For `OC1CC(Nc2ncnc3c(F)cccc23)C1n1cccn1` (stereo unspecified), the “% Inhibition” value is on record as -9% and the Z score is recorded as 1.63.
Take `O=C(NCC1CC1)C1CN(C(=O)c2cccc(Cl)c2)CC1c1cccc(C(F)(F)F)c1` (stereo unspecified): the “% Inhibition” value is reported as -13% and the Z score was found to be 1.8.
Regarding `COCC(NCC(=O)N1C(C)CCCC1C)c1ccccc1` (stereo unspecified), the “% Inhibition” value is recorded as -4% and the Z score worked out at 0.61.
Take `COc1ccc(NS(=O)(=O)c2cc(NC(=O)c3ccccc3NS(=O)(=O)c3cc(C)ccc3C)ccc2C)cc1`: the “% Inhibition” value was -3% and the Z score is 0.39.
`c1ccc(COc2ccc(CN3CC(c4nc(C5CC5)no4)C3)cc2)cc1`: the “% Inhibition” value was -17% and the Z score is reported as 3.18.
Turning to `COCCn1ccc(N[C@H]2CC(C)(C)OC2(C)C)n1`, the “% Inhibition” value is recorded as -4% and the Z score stood at 0.48.
Consider `Cc1nsc(N2CC[C@@H]3CCCC[C@@H]32)n1`, for which the “% Inhibition” value is recorded as -6% and the Z score stood at 0.97.
Turning to `c1ccc(-c2nccn2[C@H]2CCc3ccccc3C2)nc1`, the “% Inhibition” value was -3% and the Z score came out at 0.53.
With `Cc1ccc([C@@H]2Cn3nnc(-c4nc(-c5ccc(F)c(F)c5)no4)c3CO2)c(C)c1`, the “% Inhibition” value is listed as -14% and the Z score turned out to be 1.29.
Turning to `O=C(Cn1cc(C(F)(F)F)ccc1=O)Nc1cccc2ccccc12`, the “% Inhibition” value is given as -9% and the Z score is recorded as 1.54.
In the same order, the values of `Cn1c(=O)[nH]c(=O)c2cc(S(=O)(=O)N3CCN4CCOc5cccc3c54)cnc21` are -1% and 0.11.
With `C[C@H](NCC(=O)Nc1ccc(C#N)cc1)c1ncn(C)n1`, the “% Inhibition” value was -9% and the Z score stood at 1.01.
For the molecule `CCc1noc(C)c1NC(=O)N(C)Cc1nccs1`, the “% Inhibition” value is reported as -4% and the Z score was determined as 0.58.
`CC(N[C@H](CO)Cc1ccccc1)C(C)(C)O` (stereo partly specified): the “% Inhibition” value is on record as -6% and the Z score is reported as 1.14.
As for `Cc1ccc(O[C@H]2COCC[C@H]2NC(=O)c2ccncc2F)cn1`, the “% Inhibition” value is listed as -10% and the Z score was found to be 1.07.
Regarding `O=C(c1ccoc1)N1CCC2(CC1)C[C@@H](Cc1nc(-c3ccncc3)no1)CCO2`, the “% Inhibition” value is listed as -7% and the Z score was found to be 0.9.
For `CO[C@H]1CCCN(Cc2cc3cc(F)ccc3[nH]2)C1`, the “% Inhibition” value was 3% and the Z score is on record as -0.44.
For `CC(C)NC(=O)N1C[C@@H](F)C[C@H]1CO`, the “% Inhibition” value was -9% and the Z score turned out to be 0.86.
For the molecule `CCCS(=O)(=O)N1CCN(c2nc(C3CC3)nc(CC)c2Cc2cccc(Cl)c2)CC1`, the “% Inhibition” value is on record as -20% and the Z score amounted to 1.88.
In the same order, the values of `COc1ccc(-c2c3c(C)nn(-c4ccccc4)c3nc3[nH]c(=O)[nH]c(=O)c23)cc1O` are -10% and 1.25.
In the case of `Cc1ccc2c(c1)CCCN2C(=O)c1ccc(N2CCOCC2)nn1`, the “% Inhibition” value is recorded as -14% and the Z score is 1.85.
`Cc1nc(Oc2cccc(NC(=O)c3ccccc3)c2)c(C#N)c(C)c1Cl`: the “% Inhibition” value is on record as -5% and the Z score stood at 0.7.
In the case of `Nc1ccc2c(N3CCc4ccc(F)cc4C3)ncnc2n1`, the “% Inhibition” value is reported as -13% and the Z score was determined as 1.99.
Regarding `COCCC(CO)NC(=O)C1CCC=CN1C(=O)OC(C)(C)C` (stereo unspecified), the “% Inhibition” value was -7% and the Z score was found to be 1.19.
Regarding `Cc1ccc(NC(=O)NCc2ccc3c(c2)N(C(=O)c2ccccc2)[C@@H](C)C3)cc1C`, the “% Inhibition” value was 16% and the Z score is given as -1.85.
The corresponding values for `CNS(=O)(=O)CCNC(=O)c1ccccc1` are -5% and 0.55.
Consider `Cc1nc(N2CCC(C)CC2)ncc1-c1cc(=O)[nH]c(N2CCOCC2)n1`, for which the “% Inhibition” value was -9% and the Z score was 1.3.
For `Cc1noc(NC(=O)c2cccn2C)c1-c1ccccc1`, the “% Inhibition” value is -16% and the Z score is 3.03.
With `CC[C@H]1CCCCN1C(=O)Cn1cc(CN2CCC(O)CC2)nn1`, the “% Inhibition” value was -8% and the Z score is given as 1.09.
As to `O=C(C[C@H]1CCOC1)N1CCC(OCc2ccccn2)CC1`, the “% Inhibition” value is given as -6% and the Z score is reported as 0.87.
In the case of `O[C@H]1CN(Cc2nnc(-c3ccccc3)o2)CCN(C2CCCC2)C1`, the “% Inhibition” value is listed as 12% and the Z score is listed as -1.64.
In the case of `Cc1cc(C)nc(-n2nc(C)c3c2N(Cc2ccc(F)cc2)C(=O)C[C@@H]3c2ccc(Cl)cc2)n1`, the “% Inhibition” value was -16% and the Z score was found to be 2.27.
`O=C(NCc1ccc(C(=O)Nc2cccnc2)cc1)c1cc(O)c2ccccc2c1`: the “% Inhibition” value is -11% and the Z score turned out to be 1.31.
`CC(C)OCCCCNC(=O)N1C[C@@H](C)O[C@@H](C)C1`: the “% Inhibition” value is recorded as -2% and the Z score worked out at 0.26.
Regarding `Cn1nc(-c2ccccc2)c2[nH]c(-c3ccsc3)nc21`, the “% Inhibition” value is listed as 0% and the Z score was -0.06.
With `Clc1ccc(-c2cn3c4ccccc4n(CCN4CCOCC4)c3n2)cc1Cl`, the “% Inhibition” value was -18% and the Z score is 1.61.
